Earlier results in publication PMC11006913.
Some of the results follow.

How the values were obtained:
Settings in all cases: PBM; conditions not shown; double strand, one strand shown; scale: upbm affinity estimate (log intensity, higher = more binding, comparable within an allelic series)
[1] = target: NKX2-5 K183E (Homo sapiens) (UniProt P52952)
[2] = target: NKX2-5 R161P (Homo sapiens) (UniProt P52952)
[3] = target: NKX2-5 R190C (Homo sapiens) (UniProt P52952)

| Sequence | binding signal [1] | binding signal [2] | binding signal [3] |
| --- | --- | --- | --- |
| ATGAAGAG [8-mer ATGAAGAG] | 11 | 11.7 | 10.8 |
| CTGGACCC [8-mer CTGGACCC] | 10.3 | 10.4 | 10.2 |
| ACCCCCAT [8-mer ACCCCCAT] | 10.2 | 10.3 | 9.96 |
| CACCTTGG [8-mer CACCTTGG] | 10.3 | 10.6 | 10.4 |
| CAGCCCTG [8-mer CAGCCCTG] | 10.2 | 10.2 | 10.2 |
| CGCTCTGC [8-mer CGCTCTGC] | 10.2 | 10.3 | 10.2 |
| ACCACTTG [8-mer ACCACTTG] | 12 | 12.9 | 10.6 |
| CGGCCTGA [8-mer CGGCCTGA] | 10.1 | 10.2 | 10.1 |
| GCTGACCC [8-mer GCTGACCC] | 10.3 | 10.3 | 10.3 |
| ATGGCCCG [8-mer ATGGCCCG] | 10.2 | 10.4 | 10.1 |
| CCAAGTGG [8-mer CCAAGTGG] | 11.5 | 12.4 | 10.5 |
| CAAGTACA [8-mer CAAGTACA] | 11.1 | 12.2 | 10.8 |
| CGGGGCGA [8-mer CGGGGCGA] | 10.2 | 10.2 | 10.2 |
| CTTAAGTA [8-mer CTTAAGTA] | 11.3 | 12.5 | 10.8 |
| CCAGGCCC [8-mer CCAGGCCC] | 10.2 | 10.3 | 10.1 |
| CACTTTTC [8-mer CACTTTTC] | 11 | 11.8 | 10.7 |
| CGGAGGCA [8-mer CGGAGGCA] | 10.2 | 10.2 | 10.2 |
| CAGACCGG [8-mer CAGACCGG] | 10.1 | 10.1 | 10.2 |
| ATCAAGTG [8-mer ATCAAGTG] | 11.6 | 12.8 | 10.9 |
| CGCATCCC [8-mer CGCATCCC] | 10.2 | 10.4 | 10.2 |
| AGAGCACT [8-mer AGAGCACT] | 10.8 | 11.9 | 10.5 |
| GCCTCCGC [8-mer GCCTCCGC] | 10 | 10 | 10 |
| ACAAGTGG [8-mer ACAAGTGG] | 12 | 13 | 10.8 |
| ATCGGCAG [8-mer ATCGGCAG] | 10.3 | 10.2 | 10.3 |
| CGCACTTA [8-mer CGCACTTA] | 11 | 12.7 | 10.7 |
| AACACTTA [8-mer AACACTTA] | 11.4 | 12.7 | 10.9 |
| GGCACTTA [8-mer GGCACTTA] | 11.6 | 13.1 | 10.6 |

| Sequence | binding signal [1] | binding signal [2] | binding signal [3] |
| --- | --- | --- | --- |
| CACTTCTC [8-mer CACTTCTC] | 11 | 11.8 | 10.6 |
| CTGCGGTC [8-mer CTGCGGTC] | 10.3 | 10.5 | 10.2 |
| CCGGCCAC [8-mer CCGGCCAC] | 9.98 | 10.1 | 9.87 |
| CAAGTGGA [8-mer CAAGTGGA] | 11.5 | 12.5 | 10.6 |
| CAGCAGAC [8-mer CAGCAGAC] | 10.2 | 10.3 | 10.3 |
| CAAGTATC [8-mer CAAGTATC] | 11.1 | 12.1 | 10.8 |
| AAGTACTC [8-mer AAGTACTC] | 10.9 | 12.7 | 10.6 |
| AAGTGGCC [8-mer AAGTGGCC] | 11.5 | 12.4 | 10.3 |
| CCCGGCCG [8-mer CCCGGCCG] | 9.87 | 9.89 | 9.89 |
| ATAAGTGC [8-mer ATAAGTGC] | 11.6 | 13.1 | 10.9 |
| CACTTACA [8-mer CACTTACA] | 11.4 | 12.5 | 10.9 |
| GCAACGGA [8-mer GCAACGGA] | 10.3 | 10.3 | 10.4 |
| ACAGCCGG [8-mer ACAGCCGG] | 10.3 | 10.4 | 10.2 |
| GGCGCACA [8-mer GGCGCACA] | 10.5 | 10.6 | 10.3 |
| CGGCGGGA [8-mer CGGCGGGA] | 9.94 | 10 | 9.91 |
| CAGGGCCC [8-mer CAGGGCCC] | 10 | 10.3 | 9.97 |
| AGGCGCGG [8-mer AGGCGCGG] | 10.1 | 10.1 | 10.1 |
| AAGTGGCA [8-mer AAGTGGCA] | 11.7 | 12.4 | 10.7 |
| CCCGCGTC [8-mer CCCGCGTC] | 10.2 | 10.1 | 10.2 |
| AGGCGACC [8-mer AGGCGACC] | 10.2 | 10.2 | 10.2 |
| ACGGGAGG [8-mer ACGGGAGG] | 10.1 | 10.3 | 10.2 |
| TAAGTGTA [8-mer TAAGTGTA] | 11.5 | 12.6 | 11.2 |
| CACTTAAA [8-mer CACTTAAA] | 11.7 | 12.7 | 10.9 |
| CCACTTCA [8-mer CCACTTCA] | 11.9 | 13 | 10.6 |
| ACACTACA [8-mer ACACTACA] | 11.1 | 11.7 | 11 |
| CAAAAGTG [8-mer CAAAAGTG] | 10.9 | 11.7 | 10.5 |
| CAAGTGGC [8-mer CAAGTGGC] | 11.8 | 12.6 | 10.6 |
